The other results are listed elsewhere or left out.
What follows are sequences tested against T1, OsWOX13 (Oryza sativa, UniProt Q5QMM3 1-267) (assay: protein-binding microarray (RPBM); PBS, 2% BSA, 51.3 ng/ul salmon testes DNA, 50 uM zinc acetate, 200 nM TF, 25 C, 1 h; high values mean tight binding). Settings: protein: recombinant; tags: N-terminal polyhistidine and DsRed monomer fusion (pET32a); label: CyDye5-dUTP incorporated in the synthesized complementary strand; 3' TTTTT single-stranded linker to array surface; dsDNA, one strand shown.
T1 sequence: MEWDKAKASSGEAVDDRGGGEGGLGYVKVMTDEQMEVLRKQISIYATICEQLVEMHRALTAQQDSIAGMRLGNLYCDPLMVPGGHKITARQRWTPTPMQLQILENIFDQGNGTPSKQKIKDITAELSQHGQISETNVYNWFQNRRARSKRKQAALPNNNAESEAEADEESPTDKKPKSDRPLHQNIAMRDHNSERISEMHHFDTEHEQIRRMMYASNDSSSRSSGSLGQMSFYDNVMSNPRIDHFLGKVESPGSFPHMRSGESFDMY
Method in brief: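 In PBS with 2% BSA, salmon testes DNA and 50 µM zinc acetate, 200 nM protein was incubated on a custom Agilent array at 25 °C for 1 h and then washed off. The array had been made double-stranded by primer extension with Cy5-dUTP and blocked with 2% BSA. The proteins were transcription factors fused N-terminally to polyhistidine and DsRed, expressed in E. coli BL21-CodonPlus and purified on Ni–NTA. The binding signal is per-feature fluorescence intensity (arbitrary units) from an Axon 4000B scanner.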

Sequence | binding signal
AAACCCCTTACTAATTTATTAATTTATAAACAACAATTTACGGAGTCACCTAGTGCAG | 5720 fluorescence intensity (a.u.)
TTATCGAACATACTAATTGACTCTCAGGGAGTCAAGGATCCGGAGTCACCTAGTGCAG | 7680 fluorescence intensity (a.u.)
GCCAAATTATTGTCAGCTGAATGTGGGCGATGATGCTTTTCGGAGTCACCTAGTGCAG | 15000 fluorescence intensity (a.u.)
CCTAATTGACACTACCCTTAAATTTAAGAACTAATCATGTCGGAGTCACCTAGTGCAG | 31700 fluorescence intensity (a.u.)
TATATTTTAGGTTCAATCATTAGTACACAAATTTTAAATACGGAGTCACCTAGTGCAG | 3280 fluorescence intensity (a.u.)
TCTTTGTCAATCTTGTTTGGTTGCTCAAATCTTTTGGTGGCGGAGTCACCTAGTGCAG | 7260 fluorescence intensity (a.u.)
GAATAATTTATTAAATAATTTATAAATCCTGAAACGAAAACGGAGTCACCTAGTGCAG | 7340 fluorescence intensity (a.u.)
TCAGATTGTTTGCTTTAAATATGAGCAACAATTCGTCTATCGGAGTCACCTAGTGCAG | 3420 fluorescence intensity (a.u.)
TTATACTGGATTATATTGTTATTTTGTTACATCATCATCACGGAGTCACCTAGTGCAG | 3560 fluorescence intensity (a.u.)
CTAATGAGCCTAATTAATCCATGATTAGCCTATGTGATGCCGGAGTCACCTAGTGCAG | 43000 fluorescence intensity (a.u.)
GCAATATAGAATTAGATTAGATATATCCCTCGTACACCCTCGGAGTCACCTAGTGCAG | 5060 fluorescence intensity (a.u.)
CTACAAAAGCACAACTAATTGGCTGAAATGAAGAGATGGCCGGAGTCACCTAGTGCAG | 6700 fluorescence intensity (a.u.)
GTCCATGATTAGCCATAAGTGCTACAGCAACACACACGTGCGGAGTCACCTAGTGCAG | 22800 fluorescence intensity (a.u.)
GATGTTAAGTTTTGGGCATATGATTGAATTGTCTTATATACGGAGTCACCTAGTGCAG | 4180 fluorescence intensity (a.u.)
ACGATGAGTTCAGATTGAAAATGTTTACAATATTGATGTTCGGAGTCACCTAGTGCAG | 3690 fluorescence intensity (a.u.)
ATTATTGACAGGGACCAATCAACCAATGTTACGAACGCGCCGGAGTCACCTAGTGCAG | 51800 fluorescence intensity (a.u.)
AAACTGTTTTAATAATAGATAGATAGATAGATAGATAGATCGGAGTCACCTAGTGCAG | 18200 fluorescence intensity (a.u.)
AAACAAACTAATTGGTTGTCCCATCTGGAAAGGACATCTTCGGAGTCACCTAGTGCAG | 15400 fluorescence intensity (a.u.)
ATATAAATTAAAATATTTTACAGGAATTTCATAGAAACCCCGGAGTCACCTAGTGCAG | 7860 fluorescence intensity (a.u.)
CTAAACAATCAACAATGGCCATTTCTTTTAATCTTCTCTGCGGAGTCACCTAGTGCAG | 13300 fluorescence intensity (a.u.)
CATCATGATTTGATGATGGATTAATTATGCTTAATAAATTCGGAGTCACCTAGTGCAG | 55300 fluorescence intensity (a.u.)
TAATGATGGTAGTATGATTATGTCAAACATGATCTCAACTCGGAGTCACCTAGTGCAG | 6350 fluorescence intensity (a.u.)
TGTGGTTGTGGGAGGTGATTCAATCAGGGGCAAAAGGTGACGGAGTCACCTAGTGCAG | 4860 fluorescence intensity (a.u.)
TGTATTAATTTGATGGAGGTATATTCACCATCTCAAGTGACGGAGTCACCTAGTGCAG | 17400 fluorescence intensity (a.u.)
GTATGAATGAGCTATTAGATTGGCTATATATGAATTGGAGCGGAGTCACCTAGTGCAG | 24700 fluorescence intensity (a.u.)
TCTGTTCCATATTAATTGACGTTTTGAATAAAGTTGAGATCGGAGTCACCTAGTGCAG | 22000 fluorescence intensity (a.u.)
GGATTAATTAGTCTCAAAAGATTCGTCTCGCGGTTTCCAGCGGAGTCACCTAGTGCAG | 33000 fluorescence intensity (a.u.)

Sequence | binding signal
TCCAAATTATCCTGACAGATCTTAAAACACAGCCCATCACCGGAGTCACCTAGTGCAG | 17900 fluorescence intensity (a.u.)
TCATTTATTACATTAATCACGTGCTCAAGTTACCCCTAAGCGGAGTCACCTAGTGCAG | 6120 fluorescence intensity (a.u.)
CGCATGACAATCACGCTACCCTCCCCGTCCCGAATACCGACGGAGTCACCTAGTGCAG | 3750 fluorescence intensity (a.u.)
ATTCCAATTTAATGGGATTTATATAGGTTGTTAGGACTTTCGGAGTCACCTAGTGCAG | 6330 fluorescence intensity (a.u.)
ATTTTCCATTGTCAATTGTACCAATTAAGATGCACAGACCCGGAGTCACCTAGTGCAG | 6670 fluorescence intensity (a.u.)
TCTCTTCTCTACCAATCATATTTATTCTTCATCTATTATGCGGAGTCACCTAGTGCAG | 3550 fluorescence intensity (a.u.)
ATAAACACGGACCAAAATTTAAATTAAGGGAATTGACAGGCGGAGTCACCTAGTGCAG | 19800 fluorescence intensity (a.u.)
CATGGATAGGATAATCGTAACAATTATCTAGACAGTGATGCGGAGTCACCTAGTGCAG | 4950 fluorescence intensity (a.u.)
ACATTTGTGATTTTCCTAGGTAATGGTGAGATTTTATAGGCGGAGTCACCTAGTGCAG | 3220 fluorescence intensity (a.u.)
CAAAATAAACAATCTAGGGCAATTTTACTATCCTTAAGAACGGAGTCACCTAGTGCAG | 3480 fluorescence intensity (a.u.)
AAAACAAACCCAGCCTAATTGGAAATGTGACATTAACTAGCGGAGTCACCTAGTGCAG | 8030 fluorescence intensity (a.u.)
ACATGACTAATCTTATTGACTTAAGAGCTGATTAGGATACCGGAGTCACCTAGTGCAG | 20200 fluorescence intensity (a.u.)
AATTAATTGAGCCAGAGTGCCAGAGCAGAAGGAGACGGTGCGGAGTCACCTAGTGCAG | 26200 fluorescence intensity (a.u.)
GTGTTGATCTGATGGATGCAGCAATTTGCTGCTGTTGTCGCGGAGTCACCTAGTGCAG | 3740 fluorescence intensity (a.u.)
TTTATTGATTAAACATAATGGTTACAATCCCGCAAAATAACGGAGTCACCTAGTGCAG | 15900 fluorescence intensity (a.u.)
ACCCTATTTTAATTACCACATTATATGCATACATTTCATGCGGAGTCACCTAGTGCAG | 8300 fluorescence intensity (a.u.)
ATTTATGATTAACATATATTATTATGTACAAGTAGGTGATCGGAGTCACCTAGTGCAG | 24500 fluorescence intensity (a.u.)
AATAAAATTATCGATATTATGTTCGGTTTTCCTTCATACACGGAGTCACCTAGTGCAG | 3410 fluorescence intensity (a.u.)
CTTTAGATCTGATTAAGTTTGAATGAAAATTTAGCTATATCGGAGTCACCTAGTGCAG | 6620 fluorescence intensity (a.u.)
CTAACTTGATTAAAAGAGATCCATATAACAGAATTTCAAACGGAGTCACCTAGTGCAG | 5620 fluorescence intensity (a.u.)
ATCGTGTAATTTTATTACAGTTATATCAAACACAAGGGAACGGAGTCACCTAGTGCAG | 4950 fluorescence intensity (a.u.)
ATTTAAGATGTGATTGAAGAACTCAAAAGCCTGTAATATCCGGAGTCACCTAGTGCAG | 15700 fluorescence intensity (a.u.)
TTTACAAATTACAAATGTTCTTACATAATATAATCAACCTCGGAGTCACCTAGTGCAG | 6470 fluorescence intensity (a.u.)
GTAGTGTGATGGATGATCGATGGTGGTGACCCATTACCAACGGAGTCACCTAGTGCAG | 3880 fluorescence intensity (a.u.)
CATAATTTCATTAATAGTTATAATATTTTAAGTATATATTCGGAGTCACCTAGTGCAG | 6800 fluorescence intensity (a.u.)
GTATGGGAATTGATTGCTAGACTAGTGTACAAAAGCTGGGCGGAGTCACCTAGTGCAG | 40300 fluorescence intensity (a.u.)
GAAATGGTTGAGTTAATTGTTATCTTTACAGACTGGTACACGGAGTCACCTAGTGCAG | 9740 fluorescence intensity (a.u.)

Source: article PMC7819943, “Rice protein-binding microarrays: a tool to detect cis-acting elements near promoter regions in rice”
